# Measured values taken from the supplement of paper PMC10338343.
# ± gives the standard deviation. The entries are a selection whose mix differs from that of the whole data set.
# Tested on: MIWI (PIWIL1) piRISC loaded with L1MC piRNA (30 nt)
# Experiment: pre-steady-state target cleavage rate (min^-1); MIWI and MILI are mouse PIWI proteins and EfPiwi is from a freshwater sponge; tags in brackets are library labels; higher = faster piRNA-guided slicing of the target
# Details: guide: L1MC piRNA 5'p-UAACUAAAUACUAUGCAAGCUGUAGGUCCU; auxiliary factor: none (no GTSF1)
# Summary of the method: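 Reactions were run for 0–8 or 0–960 min at 33 °C in HEPES–potassium acetate buffer, combining 1 nM active affinity-purified piRISC with one synthetic guide, […] transcribed, DNA-blocked target RNA library and, in some cases, 500 nM GTSF1 partner protein. Sequencing of uncleaved targets followed, with normalisation to depth and to weakly complementary targets. Three trials were pooled, k3 was capped at 0.0001 min^-1, and the pre-steady-state cleavage rate was taken from a burst-and-steady-state fit.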
# 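Also: 1 nM active piRISC with 0.1 nM target library at 33 °C single turnover.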
row,Sequence,pre-steady-state target cleavage rate
1,UCCUGGAUGAGCUUGCAUAGUAUUUUGAUA,0.00935 ± 0.0036
2,UCCACCUACAGCUUGAAUAGUAUUUAGUUA,0.0277 ± 0.0053
3,UCCUGGUACAGCUUGCAUUGUAUUUUGUUA,0.0133 ± 0.0036
4,UCGACCUACAGCUUGCUAAGUAUUUAGUUA,0.00295 ± 0.0014
5,UCCUGGAACUAGCUUGCAUAGUAUUUAGUUA,0.0415 ± 0.0091
6,UCCACCUGCAGCUUGCAUAGUAUUUAGUUA,0.0541 ± 0.011
7,UCCACCUACAGCUUGCAUAGUAUUUAGUGUA,0.0284 ± 0.0077
8,AGGACCUACAGCUUGCAUAGUAUUUUGAUA,0.0142 ± 0.0036
9,UCCACCUACAGCAUGGAUAGUAUUUAGUUA,0.0231 ± 0.0039
10,UGGACCUACUGCUUGCAUAGUAUUUAGUAA,0.0421 ± 0.008
11,UCGAGCUACAGCUUGCAUUGUAUUUAGUUA,0.0344 ± 0.0094
12,UCGACCUACAGCUUGCAUAGUAUUUAGUGUA,0.038 ± 0.0081
13,UCCUGCUUGUGCUUGCAUAGUAUUUAGUUA,0.0382 ± 0.0071
14,UCCUGGAUGAGCUUCGCAUAGUAUUUAGUUA,0.0124 ± 0.0037
15,UCCUGGUACAGCUUGCAUAGUAUUAAGUAA,0.00479 ± 0.0028
16,AGGACCUACAGCUUGCUUAGUAUUUACUUA,0.0641 ± 0.016
17,UCCUGGAUGUCGAACGUAUCUAUUAAGUUA,< 0.0001
18,UCCUGGUACAGCUUGCAUAGUAUUUUGAAA,0.00427 ± 0.0021
19,UCGACCUACAGCUAGCAUAGUAUUUUGUUA,0.013 ± 0.0031
20,UCGACCUACAGCUAGCUUAGUAUUUAGUUA,0.00927 ± 0.0022
21,AGGACCUACAGCUUGCAUAGUAUUUUCAAA [g6:g30:cont:t1A],0.00572 ± 0.0041
22,UCCACCUACAGCUUGCUUAGUAAUUAGUUA,0.0116 ± 0.0032
23,UCCUCGUACUGCUUGCAUAGUAUUUAGUUA,0.0522 ± 0.0088
24,UCCUGGUACACCUUGCUUAGUAUUUAGUUA,0.0101 ± 0.0025
